The whole screen tested about 4,100 compounds, of which about 1,600 (39%) were called active. The shares of active, inactive and inconclusive entries below differ from those in the screen. Calls come from the whole dose curve; as a rule, active = well fitted inhibition curve with a large enough effect; inconclusive = small, poorly fitted or top-dose-only effect; inactive = no such curve, though single readings can be large or run the other way. Potencies of inconclusive entries are doubtful fits and often do not repeat.
Assay: qHTS Validation assay for Inhibitors of Plasmodium falciparum Dd2 growth in vitro; note: nearly all actives have a fitted effect of over 70% in size
Conditions: P. falciparum Dd2 in RBCs, SYBR Green growth, 72 h; activity change, negative = inhibition: at 28.7 µM (top of the series) unless noted
In short: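 P. falciparum Dd2-infected red blood cells (2.5% hematocrit, 0.3% parasitemia) grown 72 h at 37 °C under 5% O2 with compounds in a titration, 29 uM to 0.5 nM final. Growth read as SYBR Green-1 fluorescence after ~16 h lysis; artesunate 300 nM as positive control.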
% is set by controls: 0 for no effect and ±100 for the full control effect; potency is the fitted concentration of half-maximal effect; tags give direction and shape of the fitted curve.

SMILES | Potency | activity change, negative = inhibition
CCC(C)(C)C(=O)N1CCC2(CC1)CC(N(Cc1ccc(F)cc1)C1CC1)CCO2 (configuration not stated) | inconclusive: 16.8 µM [inhibitor, single point] | 
COc1ccccc1C(=O)NCCn1ccn2nc(-c3cc(C)ccc3C)cc2c1=O |  | inactive: -2.98%
Cc1nccn1C1(C(=O)O)CCN(Cc2ccc(-c3ccn[nH]3)o2)CC1 |  | inactive: 93.2%
CCCOc1cccc(C2c3c(oc4ccc(F)cc4c3=O)C(=O)N2Cc2ccc3c(c2)OCO3)c1 (configuration not stated) |  | inactive: 2.36%
Cc1ccsc1C1Nc2ccc3ncccc3c2C2=C1C(=O)CC(C)(C)C2 (configuration not stated) | inconclusive: 21.1 µM [inhibitor, single point] | 
COc1cccc(CN2CCOC3(CCN(Cc4ccc(F)cc4F)CC3)C2=O)c1 | inconclusive: 21.7 µM [inhibitor, single point] | 
CCS(=O)(=O)N1CC(F)(F)C[C@H]1c1nc(CCOC)no1 |  | inactive: 13.7%
CC1CCC2(CC1)NC(=O)N(CC(=O)Nc1ccc(Cl)cc1)C2=O (configuration not stated) |  | inactive: 3.07%
Fc1ccc(N2CCN(Cc3cccn3-c3nnc(N4CCN(C5CCCCC5)CC4)s3)CC2)cc1 | active: 11.9 µM | 
Cc1cc(C)n(-c2nnc(N3CCN(c4ccccc4)CC3)nn2)n1 | inconclusive: 0.596 µM [inhibitor, full curve] | 
COc1cccc(CN2CCCOCCNC(=O)[C@@H]3CCCC[C@@H]32)c1 | inconclusive: 21.1 µM [inhibitor, single point] | 
Cc1cc(=O)n(CC(=O)NCc2ccccc2Br)c(N(C)Cc2ccccc2)n1 |  | inactive: -29.8%
CN1C(=O)CCC2(C(=O)O)CCCC=C12 (configuration not stated) |  | inactive: 19.8%
Cc1ccc(S(=O)(=O)N2CCC(C(=O)NC3CC3)CC2)cc1 |  | inactive: -28%
COc1cc(SC)ccc1C(=O)N1CC(C)OC(C)C1 (configuration not stated) | inconclusive: 15 µM [inhibitor, partial curve, poor fit] | 
O=C(Nc1ccc(-c2csc(Nc3cccc(C(F)(F)F)c3)n2)cc1)c1cc([N+](=O)[O-])cc(C(F)(F)F)c1 | inconclusive: 1.68 µM [inhibitor, full curve, poor fit] | 

SMILES | Potency | activity change, negative = inhibition
COc1ccc(CN2CCC3(C2)C(=NC2CCCC2)NC(=O)N3c2cccnc2)cc1 (configuration not stated) | inconclusive: 0.531 µM [inhibitor, partial curve, poor fit] | 
Cc1ccc2nc3c(c(Nc4ccc(O)cc4)c2c1)CCC3 | inconclusive: 21.1 µM [inhibitor, single point] | 
CCOc1ccc(S(=O)(=O)N2CCC(C(=O)NC3CC3)CC2)cc1Cl | inconclusive: 16.8 µM [inhibitor, single point] | 
O=C(Cc1ccc2c(c1)OCO2)N1CCOCC2(CN(Cc3ccccc3)C2)C1 | inconclusive: 6.85 µM [inhibitor, partial curve] | 
CCCN1CCCC12Cc1ccccc1CN([S+](C)(=O)[O-])C2 (configuration not stated) | inconclusive: 26.3 µM [inhibitor, single point] | 
CCc1cccc(NC(=O)c2nnn3cc(C)[nH]c(=O)c23)c1 | inconclusive: 21.1 µM [inhibitor, single point] | 
O=C(Nc1ccc(Oc2cccc(C(F)(F)F)c2)nc1)c1cccs1 | inconclusive: 13.3 µM [inhibitor, single point] | 
CC1=C[C@@H](CO)[C@H](C(C)C)C[C@H]1Cc1nnc(-c2ccc(N(C)C)cc2)o1 | inconclusive: 34.4 µM [inhibitor, single point] | 
O=C(COc1ccccc1)N1CCCC(n2cc(-c3nc(C4CC4)no3)nn2)C1 (configuration not stated) |  | inactive: -15.8%
O=S1(=O)N=C(Nc2ccc(O)c(CN3CCCCC3)c2)c2ccccc21 | inconclusive: 21.1 µM [inhibitor, single point] | 
O=C(c1cc(C(F)(F)F)[nH]n1)N1CC[C@@H](c2ccc(F)cc2)[C@H](O)C1 |  | inactive: 10.1%
Cc1cn2nc(C(=O)N3CCC(NC(=O)c4ccc(F)cc4)CC3)cc2c(=O)[nH]1 |  | inactive: 9.32%
COc1ccc(-c2cn(C)c(=O)n3cc(COc4ccc(C(=O)O)cc4)nc23)c(C)c1 | inconclusive: 8.63 µM [inhibitor, single point] | 
O=C(NCc1cccs1)C1CCN(S(=O)(=O)c2ccc(Cl)cc2)CC1 | inconclusive: 15 µM [inhibitor, single point] | 
COc1cccc(CN2CCc3c(cc(C(=O)Nc4ccccc4)n3C)C2)c1 | inconclusive: 21.1 µM [inhibitor, single point] | 
O=C(NCC1CCCCC1)C12CN(Cc3ccccc3)CC1C(c1cccc([N+](=O)[O-])c1)=NO2 (configuration not stated) | inconclusive: 6.68 µM [inhibitor, partial curve] | 
